PubChem BioAssay AID894 (National Center for Advancing Translational Sciences (NCATS), 2007)
Where “and” joins values, the source holds several entries; their conditions need not be identical. Equal values may be shown once. Hit rate of the full screen: of about 150,000 compounds, about 6,500 (4.3%) were called active. Inconclusive means that the source gave no clear call. Such entries were picked first, then a sample of the others. Calls come from the whole dose curve; as a rule, active = well fitted inhibition curve with a large enough effect (not every such curve was filed as active); inconclusive = small, poorly fitted or top-dose-only effect, or another doubt; inactive = no such curve, though single readings can be large or run the other way. Where the call is inconclusive, the potency comes from a doubtful curve fit. Where a structure was tested more than once in an assay, its records may differ in their call.

biological target: 15-hydroxyprostaglandin dehydrogenase [NAD(+)] (Homo sapiens) (UniProt P15428); test: qHTS Assay for Inhibitors of HPGD (15-Hydroxyprostaglandin Dehydrogenase); conditions: purified HPGD, NADH fluorescence kinetic, PGE2 substrate; activity change, negative = inhibition: active compounds read low
Sequence of UniProt P15428 (P15428 whole entry, looked up): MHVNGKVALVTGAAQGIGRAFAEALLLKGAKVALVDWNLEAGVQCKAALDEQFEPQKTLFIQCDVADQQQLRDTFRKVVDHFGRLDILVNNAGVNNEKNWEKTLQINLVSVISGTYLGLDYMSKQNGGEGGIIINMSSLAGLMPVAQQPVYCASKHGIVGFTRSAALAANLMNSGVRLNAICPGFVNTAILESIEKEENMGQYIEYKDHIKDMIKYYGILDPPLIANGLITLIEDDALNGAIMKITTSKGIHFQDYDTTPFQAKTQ
In short: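 20 nM HPGD preincubated 15 min at room temperature with compound in 50 mM Tris-HCl pH 8, 0.01% Tween 20. Started with 1 mM NAD+ and 30 uM prostaglandin E2; NADH fluorescence (360/450 nm) read 5 times over 30-s intervals, last minus first.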
% is set by controls: 0 for no effect and ±100 for the full control effect; potency is the fitted concentration of half-maximal effect; tags give direction and shape of the fitted curve.

Activity change, negative = inhibition, inactive:
N#C/C(C(=O)NCc1ccccc1)=C1/SC(Cc2ccc(Cl)cc2)C(=O)N1c1ccccc1 (stereo not given) -9.13%, Cc1cc(C)c(N(C(=O)Cn2nnc3ccccc32)C(C(=O)NC(C)(C)C)c2ccsc2)c(C)c1 (stereo not given) -5.27%, COc1cccc(C2=CC(c3cccc(OC)c3OC(F)F)n3nnnc3N2)c1 (stereo not given) -16.9%, COc1ccc2c(c1)CCN(C(=O)CCl)C2C1C(=O)CCCC1=O (stereo not given) -5.08%, CS(=O)(=O)Nc1nnc(SCC(=O)N(c2ccccc2)c2ccccc2)s1 -16.9%, O=C(N=C1SCC(=O)N1c1ccccc1)c1ccco1 -8.33%, CNc1nc(Oc2ccc(=O)n(C)n2)nc(N2CCOCC2)n1 -14.3%, Cc1ccccc1NC(=S)NNC(=O)c1csc2c1CCC(C)C2 (stereo not given) -8.15%, COc1ccc(NC(=O)CC(c2ccc(F)cc2)c2ccc(OC(C)C)cc2)cc1 (stereo not given) -3.54%, C=C1C(=O)O[C@@H]2C3OC3(C)CC/C=C(\C)CC[C@@H]12 (stereo not given in full) -0.684%, O=C(C1CCCN(Cc2ccccc2C(F)(F)F)C1)N1CCCCC1 (stereo not given) -22.1%, C[C@@H](C(=O)Nc1ccc2ccccc2c1)[C@H]1C[C@]1(C)[C@H](NC(=O)c1ccccc1)c1ccccc1 -13%, Oc1ccc(/C=N/Nc2cc(N3CCCC3)nc(N3CCCC3)n2)cc1O -9.31%, O=S(=O)(NC1CCCCC1Oc1ccccc1)c1ccccc1 (stereo not given) -10.6%, Cn1c(=O)[nH]c(=O)c2[nH]c(N(Cc3ccccc3)Cc3ccccc3)nc21 -14.2%, COc1ccc2nc(SCC(=O)Nc3ccc4c(c3)CCC4)[nH]c2c1 -9.56%, COc1ccc(CSc2nnc(N)s2)cc1F -21%

Potency, active:
NC(=O)c1c(NC(=O)CCCC(=O)O)sc2c1CCCCCC2 28.2 µM, COCCNC(=O)CCCCCn1c(=S)[nH]c2ccccc2c1=O 12.6 µM, CCSc1ccccc1C(=O)NCc1ccc2c(c1)OCO2 1.41 µM, CCN(CC)c1ccc(NC(=O)COc2ccccc2C#N)cc1S(=O)(=O)Nc1ccccc1OC 3.55 µM, COc1ccc(C(=O)N/N=C/c2cc3ccccc3[nH]c2=S)cc1 1.26 µM, CCOc1cc(/C=C2/C(=O)ON=C2C)ccc1OCc1ccccc1F 1.58 µM, CCOC(=O)CSc1nnc(-c2cccs2)n1-c1ccccc1 28.2 µM, COc1ccccc1C(=O)NCc1ccc(-c2nc3ccccc3s2)cc1 17.8 µM, CCOCCCNC(=O)c1ccccc1Br 10 µM, CCN(CC)c1ccc(NC(=O)c2ccccc2F)cc1S(=O)(=O)Nc1ccccc1OC 14.1 µM, S=c1nc(-c2ccco2)[nH][nH]1 22.4 µM, C[C@@](Cc1ccc(O)c(O)c1)(NN)C(=O)O 28.2 µM and 22.4 µM, CC(C)(C)c1ccc(O)c(O)c1 10 µM

Potency, inconclusive:
COCCSc1ccccc1C(=O)Nc1ccc2c(c1)OCCO2 28.2 µM [inhibitor, single point], COc1ccc(-c2cc(C(=O)NC(C)C)no2)cc1 31.6 µM [inhibitor, partial curve], N#Cc1nc(-c2ccc(OCc3ccccc3Cl)cc2)oc1NCCCn1ccnc1 31.6 µM [inhibitor, partial curve], O=C(C1CC1)N1CCc2cc(S(=O)(=O)N(CCO)Cc3ccccc3)ccc21 25.1 µM [inhibitor, partial curve, poor fit], CC1(C)CC2CC(C)(CN2C(=O)COC(=O)c2cc(Cl)cc(Cl)c2N)C1 (stereo not given) 28.2 µM [inhibitor, partial curve], CCN1CCN(CCCNC(=O)c2cc3c(=O)[nH]c4ccccc4c3s2)CC1 31.6 µM [inhibitor, partial curve], CCOC(=O)c1nn(-c2ccccc2)c(C#N)c1NC(=O)c1nn(CC)cc1Br 31.6 µM [inhibitor, single point], CC(C)(C)OC(=O)NCCCCC1=CC2=CC(=O)C(C)(OC(=O)c3cccs3)C(=O)C2=CO1 (stereo not given) 25.1 µM [inhibitor, single point], Cc1ccc(SCc2[nH]nc3c2C(c2ccc(C)o2)C(C#N)=C(N)O3)cc1 (stereo not given) 25.1 µM [inhibitor, single point], NC[C@@H]1O[C@H](C23CC4CC(CC(C4)C2)C3)Cc2c1ccc(O)c2O 35.5 µM [inhibitor, partial curve, poor fit], CC(C)Cn1c(-c2ccco2)n[nH]c1=S 14.1 µM [inhibitor, partial curve], CCOc1cccc2sc(Nc3nc4ccc(NC(C)=O)cc4s3)nc12 31.6 µM [inhibitor, partial curve], CCc1ccc(NC(=O)COc2ccc(/C=C(/C#N)c3nc4ccccc4[nH]3)cc2OC)cc1 39.8 µM [inhibitor, partial curve, poor fit], COc1ccc(-c2[nH]c(-c3ccc(C)cc3)nc2SCC(=O)NC2CCCC2)cc1 31.6 µM [inhibitor, single point], N#CCSc1nc2[nH]ncc2c(=O)n1-c1ccccc1Br 5.62 µM [inhibitor, partial curve], N#CC(=C1CCCC1)c1nc(-c2ccccc2O)cs1 17.8 µM [inhibitor, partial curve], Cn1c(SCC(=O)c2cc3ccccc3o2)nnc1-c1ccccc1 25.1 µM [inhibitor, single point], Cc1ccc2[nH]cc(CCNC(=O)CN3C(=O)c4ccccc4C3=O)c2c1 25.1 µM [inhibitor, partial curve, poor fit], COCCCNC(=O)C1CCN(c2nc(C)cc(C)n2)CC1 28.2 µM [inhibitor, partial curve], O=c1[nH]c(Nc2ccc(F)cc2)cc2ccccc12 35.5 µM [inhibitor, partial curve], CCN(CC)c1ccc(-c2nn3c(-c4ccccc4OC)nnc3s2)cc1 31.6 µM [inhibitor, partial curve], CC1CCC/C(=C(\C#N)c2nc(-c3cc4ccccc4oc3=O)cs2)C1 (stereo not given) 10 µM [inhibitor, partial curve], O=S(=O)(c1ccccc1)N1CCN(c2nc(-c3cccs3)nc3ccccc23)CC1 31.6 µM [inhibitor, single point], CC(C)C1Cc2c(sc3c2c(=O)n(Cc2ccccc2)c2nncn32)CO1 (stereo not given) 10 µM [inhibitor, partial curve], COc1ccc(N=C2NC(=O)/C(=C/c3ccc(O)c(OC)c3)S2)cc1 22.4 µM [inhibitor, partial curve], Cc1cc(=O)oc(C)c1C(=O)OCC(=O)c1ccc2ccccc2c1 35.5 µM [inhibitor, partial curve], CC1CCCCN1S(=O)(=O)c1ccc(C(=O)Nc2ccccc2-c2nc3ccccc3s2)cc1 (stereo not given) 5.01 µM [inhibitor, full curve], CC(C)(C)NC(=O)CSc1nc(-c2ccccc2)c(-c2ccccc2)[nH]1 39.8 µM [inhibitor, single point], CCN(CC)CCCn1c(-c2ccccc2)nc2c(N(CCOC)CCOC)nc(C)nc21 28.2 µM [inhibitor, partial curve], Clc1ccc2oc(-c3ccccn3)nc2c1 31.6 µM [inhibitor, partial curve], CSc1nc2ccc(Cl)cc2[nH]1 10 µM [inhibitor, partial curve, poor fit], Cc1cccc2nc(-c3ccccc3)nc(N3CCC(O)(c4ccc(Cl)cc4)CC3)c12 31.6 µM [inhibitor, single point], N#Cc1nc(-c2ccco2)oc1N1CCN(Cc2ccccc2)CC1 25.1 µM [inhibitor, partial curve], CC(C)c1nc2oc3c(NCc4cccnc4)ncnc3c2c2c1CCC2 22.4 µM [inhibitor, partial curve], CCCCN1C(=O)Cc2c1nc(N)c1c(N)nc(N(CCC)CCC)c(C#N)c21 35.5 µM [inhibitor, single point], CCOc1ccccc1NC(=O)COn1nnc2ccc(Cl)cc21 28.2 µM [inhibitor, partial curve], CCOC(=O)N1CCC(NC(=O)C2CCN(c3ccc(N4CCOCC4)nn3)CC2)CC1 12.6 µM [inhibitor, partial curve], COc1ccccc1-c1nc(C#N)c(N2CCN(C(c3ccccc3)c3ccccc3)CC2)o1 28.2 µM [inhibitor, partial curve], CC(C)c1nc2sc3c(NCc4ccco4)ncnc3c2c2c1COC(C)(C)C2 20 µM [inhibitor, partial curve], CCC(OC(=O)c1cc2sccc2n1C)C(=O)NCc1ccco1 (stereo not given) 20 µM [inhibitor, partial curve]
